Laboratory results as given in the supplement of paper PMC4967469.
IC50 is the fitted dose that halves viability relative to control wells, and lower means more sensitive; a limit (>, <) means that the fit lies beyond the doses tested. AUC, from the same fit, is the share of area under the viability curve across the 256-fold dose range: 1 means no effect, lower means more sensitive. An inferred top dose was calculated from the reported fits. For some of these results: An entry number marks a drug with two screens in the source, which often give different values.

Legend:
Experiment in all cases: Viability of human cancer cell lines after 72 h of drug (GDSC screen)
Shikonin = compound: CC(C)=CC[C@@H](O)C1=CC(=O)c2c(O)ccc(O)c2C1=O [Shikonin]; conditions: top dose 16 µM; top dose inferred
Procedure: (§1)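 Human cancer cell lines in 384-well plates, medium with 10% serum, drug for 72 h over a 256-fold dose range (nine 2-fold or five 4-fold steps up to the top dose). Adherent lines were fixed and stained with the nucleic acid dye Syto60, suspension lines read with resazurin; signal relative to control wells, capped at 0 and 100%. One two-parameter sigmoid per drug and line, fitted in a mixed model over all curves with the slope shared within a line.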

CGP-082996 (CINK4) = compound: CCNc1cc(NC2CCC(O)CC2)nc(Nc2ccc3c(ccn3Cc3ccccc3)c2)n1 [CGP-082996 (CINK4)]; conditions: top dose 5.12 µM; top dose inferred
Procedure: as §1

A-770041 = compound: COc1cc(-c2nn([C@H]3CC[C@H](N4CCN(C(C)=O)CC4)CC3)c3ncnc(N)c23)ccc1NC(=O)c1cc2ccccc2n1C [A-770041]; conditions: top dose 5.12 µM; top dose inferred
Procedure: as §1

XMD8-85 = compound: COc1cc(N2CCN(C)CC2)ccc1Nc1ncc2c(n1)N(C)c1ccccc1C(=O)N2C [XMD8-85]; conditions: top dose 8 µM; top dose inferred
Procedure: as §1

BMS-536924 = compound: Cc1cc(N2CCOCC2)cc2[nH]c(-c3c(NC[C@@H](O)c4cccc(Cl)c4)cc[nH]c3=O)nc12 [BMS-536924]
Procedure: as §1

BIRB 0796 = compound: Cc1ccc(-n2nc(C(C)(C)C)cc2NC(=O)Nc2ccc(OCCN3CCOCC3)c3ccccc23)cc1 [BIRB 0796]; conditions: top dose 10 µM; top dose inferred
Procedure: as §1

SB-525334 = compound: Cc1cccc(-c2[nH]c(C(C)(C)C)nc2-c2ccc3nccnc3c2)n1 [SB-525334]; conditions: top dose 20 µM; top dose inferred
Procedure: as §1

VX-702 = compound: NC(=O)c1ccc(N(C(N)=O)c2c(F)cccc2F)nc1-c1ccc(F)cc1F [VX-702]; conditions: top dose 2 µM; top dose inferred
Procedure: as §1

Olaparib = compound: O=C(c1cc(Cc2n[nH]c(=O)c3ccccc23)ccc1F)N1CCN(C(=O)C2CC2)CC1 [Olaparib]
Procedure: as §1

Wee1 inhibitor 681640 = compound: O=C1NC(=O)c2c1c(-c1ccccc1Cl)cc1[nH]c3ccc(O)cc3c21 [Wee1 inhibitor 681640]; conditions: top dose 2 µM; top dose inferred
Procedure: as §1

[1] = top dose 4 µM, screen: GDSC drug entry 1091, top dose inferred
[2] = top dose 5.12 µM, screen: GDSC drug entry 62
[3] = top dose 5 µM, screen: GDSC drug entry 1017, top dose inferred
[4] = top dose 10 µM, screen: GDSC drug entry 1495

Row | Cell Line | AUC (Shikonin) | IC50 (Shikonin) [µM] | AUC (CGP-082996 (CINK4)) | IC50 (CGP-082996 (CINK4)) [µM] | AUC (A-770041) | IC50 (A-770041) [µM] | AUC (XMD8-85) | IC50 (XMD8-85) [µM] | AUC (BMS-536924; [1]) | IC50 (BMS-536924; [1]) [µM] | AUC (BMS-536924; [2]) | IC50 (BMS-536924; [2]) [µM] | AUC (BIRB 0796) | IC50 (BIRB 0796) [µM] | AUC (SB-525334) | IC50 (SB-525334) [µM] | AUC (VX-702) | IC50 (VX-702) [µM] | AUC (Olaparib; [3]) | IC50 (Olaparib; [3]) [µM] | AUC (Olaparib; [4]) | IC50 (Olaparib; [4]) [µM] | AUC (Wee1 inhibitor 681640) | IC50 (Wee1 inhibitor 681640) [µM]
1 | P31-FUJ (acute myeloid leukaemia, suspension) | 0.579 | 1.56 | 0.996 | > 5.12 | 0.993 | > 5.12 | 0.995 | > 8 | 0.99 | > 4 | 0.987 | > 5.12 | 0.996 | > 10 | 0.994 | > 20 | 0.994 | > 2 | 0.981 | > 5 | 0.982 | > 10 | 0.995 | > 2
2 | P32-ISH (Burkitt lymphoma, suspension) | 0.361 | 0.457 | 0.892 | 3.42 | 0.792 | 1.71 | 0.844 | 3.75 | 0.972 | > 4 | 0.915 | 4.17 | 0.995 | > 10 | 0.911 | 15.6 | 0.991 | > 2 | 0.995 | > 5 | 0.987 | > 10 | 0.994 | > 2
3 | PF-382 (T-cell lymphoblastic leukaemia, suspension) | 0.441 | 0.706 | 0.842 | 2.95 | 0.889 | 4.56 | 0.794 | 3.19 | 0.99 | > 4 | 0.954 | > 5.12 | 0.991 | > 10 | 0.953 | > 20 | 0.985 | > 2 | 0.976 | > 5 | 0.981 | > 10 | 0.986 | > 2
4 | PSN1 (pancreas, adherent) | 0.929 | > 16 | 0.936 | > 5.12 | 0.698 | 1.03 | 0.942 | > 8 | 0.942 | > 4 | 0.528 | 0.376 | 0.988 | > 10 | 0.938 | > 20 | 0.987 | > 2 | 0.973 | > 5 | 0.937 | > 10 | 0.942 | > 2
5 | RCC10RGB (kidney, adherent) | 0.569 | 1.85 | 0.861 | > 5.12 | 0.863 | > 5.12 | 0.785 | > 8 |  |  | 0.769 | 4.39 | 0.944 | > 10 | 0.882 | > 20 | 0.953 | > 2 | 0.968 | > 5 | 0.948 | > 10 | 0.857 | > 2
6 | REH (B-cell leukaemia, suspension) | 0.194 | 0.129 | 0.901 | > 5.12 | 0.938 | > 5.12 | 0.733 | 2.24 | 0.733 | 1.11 | 0.928 | > 5.12 | 0.987 | > 10 | 0.935 | > 20 | 0.967 | > 2 | 0.979 | > 5 | 0.894 | > 10 | 0.95 | > 2
7 | RF-48 (stomach, adherent) | 0.423 | 0.601 | 0.957 | > 5.12 | 0.85 | 4.62 | 0.949 | > 8 | 0.924 | > 4 | 0.896 | > 5.12 | 0.985 | > 10 | 0.728 | 6.08 | 0.981 | > 2 | 0.964 | > 5 | 0.979 | > 10 | 0.981 | > 2
8 | ROS-50 (B-cell leukaemia, suspension) | 0.498 | 0.986 | 0.897 | > 5.12 | 0.95 | > 5.12 | 0.797 | 5.01 | 0.978 | > 4 | 0.97 | > 5.12 | 0.985 | > 10 | 0.856 | > 20 | 0.971 | > 2 | 0.969 | > 5 | 0.966 | > 10 | 0.973 | > 2
9 | RPMI-6666 (Hodgkin lymphoma, suspension) | 0.436 | 0.644 | 0.901 | > 5.12 | 0.698 | 1.3 | 0.822 | 5.97 | 0.897 | > 4 | 0.813 | 3.48 | 0.982 | > 10 | 0.878 | > 20 | 0.945 | > 2 | 0.954 | > 5 | 0.938 | > 10 | 0.965 | > 2
10 | Raji (Burkitt lymphoma, suspension) | 0.521 | 1.14 | 0.921 | > 5.12 | 0.945 | > 5.12 | 0.903 | > 8 | 0.972 | > 4 | 0.988 | > 5.12 | 0.99 | > 10 | 0.92 | > 20 | 0.987 | > 2 | 0.985 | > 5 | 0.964 | > 10 | 0.987 | > 2
11 | Ramos-2G6-4C10 (Burkitt lymphoma, suspension) | 0.314 | 0.331 | 0.943 | > 5.12 | 0.909 | > 5.12 | 0.881 | 6.27 | 0.947 | > 4 | 0.978 | > 5.12 | 0.991 | > 10 | 0.963 | > 20 | 0.902 | 1.96 | 0.934 | > 5 | 0.99 | > 10 | 0.964 | > 2
